The values below come from the supplement of paper PMC11417369.

Some of the results follow.

This assay deals with PfAP2-HC AP2 domain (GST-tagged). Briefly: gcPBM binding intensity (ln(normalized median fluorescence intensity)); higher = stronger DNA binding. In outline:
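Binding of GST-tagged P. falciparum DNA-binding domains, expressed in E. coli and used at about 25 μg on average, was carried out for 1 h in 1× PBS containing 1% milk, 0.2 mg/ml BSA, 0.5% salmon testes DNA and 0.03% Triton X-100. The target was an Agilent 4 × 180k array of primer-extended double-stranded 36-bp intergenic genomic probes plus negative controls, read with Alexa488 anti-GST antibody at 488 nm. Binding intensity is the highest Masliner-normalised natural-log median intensity across replicate spots of either probe orientation.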
As for “AAACAATACTGATATTGTACATAATAAAAAAAAATA [XGTACX_site3330]”, the “gcPBM binding intensity (ln)” value was 10.

Turning to ATTTTGATGCATGGGTTGCACTAACTTTTGCCCAGA, the “gcPBM binding intensity (ln)” value was found to be 9.51.

Consider “TACTATATAAGTAAGGCATGCATGCCGATTTTTTTA [TGCATGCA_site100]”, for which the “gcPBM binding intensity (ln)” value stood at 9.49.

Take “TTCTTTAATACTTATTGTACAATATAATAATCACAA [XGTACX_site6364]”: the “gcPBM binding intensity (ln)” value stood at 9.7.

Turning to “AAAAAAAAAAAAATATGTACTTATTTTTATGTTAAA [XGTACX_site8802]”, the “gcPBM binding intensity (ln)” value was found to be 9.28.

For the sequence “TACTTAAAATATTTAACAAATAAATAAATAAATAAA [XGTACX_negctrl_site523]”, the “gcPBM binding intensity (ln)” value turned out to be 9.17.

On to “TGAAACCGTTACATGTGTACATATGTTACACATAAT [XGTACX_site7250]”, for which the “gcPBM binding intensity (ln)” value was 9.7.

In the case of “TCACATCTTATATACTGTACATTTCGAATATAAATT [XGTACX_site2508]”, the “gcPBM binding intensity (ln)” value turned out to be 9.68.

On to “TTTCTTTTACATATTTGTACATATATAAATTTATAT [XGTACX_site1787]”, for which the “gcPBM binding intensity (ln)” value came to 9.91.

Regarding “ATATTTTTATTTTCTTTACACACCACATAATTTTTT [CACACA_site4060]”, the “gcPBM binding intensity (ln)” value was determined as 10.1.

In the case of “TCTAACAACATGCGCACACACATGAATATTCATATT [CACACA_site1540]”, the “gcPBM binding intensity (ln)” value worked out at 10.4.

“ATTAGATATGTAAACTAAAATTATATTCATGATAAT [TGCATGCA_negctrl_site182]”: the “gcPBM binding intensity (ln)” value stood at 9.68.

Take “CAAGGAACCGGACACACACACATAAATGTATTTATA [CACACA_site4574]”: the “gcPBM binding intensity (ln)” value was determined as 10.2.

Take “CATTATCATGTTTTTTGTACTCATAATAAAAAGCAG [XGTACX_site2056]”: the “gcPBM binding intensity (ln)” value was 9.27.

“ATTTACAAAAGGAAAGTGCAAACATGTGATTAAACA [CACACA_negctrl_site714]”: the “gcPBM binding intensity (ln)” value worked out at 9.7.

Consider “TATATATAGAAACACACACACACCAAAGCGTAGCGC [CACACA_site62]”, for which the “gcPBM binding intensity (ln)” value turned out to be 10.5.

With “AATAATTGTTAAAGTTGTACTATACGTATATAAGAA [XGTACX_site1432]”, the “gcPBM binding intensity (ln)” value is 9.85.

As to “AAAAATGAATTATTTTGTACATATATATATATATAT [XGTACX_site3410]”, the “gcPBM binding intensity (ln)” value was determined as 9.74.

For “GCCAAAAGGATATGCACACACACACCCATATATATA [CACACA_site2198]”, the “gcPBM binding intensity (ln)” value is 10.6.

On to “ATTTTAATTACATATACACACAAAGGTTCATAACAA [CACACA_site9008]”, for which the “gcPBM binding intensity (ln)” value was 9.67.

Consider “TAATTTAAACAAAAAAGTACAAATTTCTTTTTATTA [XGTACX_site5244]”, for which the “gcPBM binding intensity (ln)” value turned out to be 9.3.

As to “TACTCATAATATTGATAATTAAAAAGATAAACTATT [XGTACX_negctrl_site299]”, the “gcPBM binding intensity (ln)” value worked out at 9.43.

For “ATTATTTTATTATAGTGTACTTTTTTAATCAAAGGA [XGTACX_site8921]”, the “gcPBM binding intensity (ln)” value was determined as 9.44.

Turning to “AATTTTATTACTTTTACACACCTATATATTATTCAT [CACACA_site3273]”, the “gcPBM binding intensity (ln)” value was determined as 10.1.

Regarding “TTTTAAAAAAAATATAAAAAAAGAGGAGGGATGGTA [GTGCAC_negctrl_site35]”, the “gcPBM binding intensity (ln)” value was 9.75.

For TATGTTTTTACGTGTGTGCACTTTGTAGAGATAAGT, the “gcPBM binding intensity (ln)” value turned out to be 9.85.

“AACTTATTTAAATTCACACATATATAAAATACTTAT [CACACA_site4394]”: the “gcPBM binding intensity (ln)” value was determined as 9.62.

Consider “GATAACATAATATGTTGTACATAAAAATTTTTATCA [XGTACX_site1969]”, for which the “gcPBM binding intensity (ln)” value is 9.62.

On to “ATCAATTTAATTTATTGTACTTGTTTGTTTTTTTAT [XGTACX_site7544]”, for which the “gcPBM binding intensity (ln)” value is 9.81.

In the case of “ATAAAGATATGACACACACACATATTATAGATATAT [CACACA_site7434]”, the “gcPBM binding intensity (ln)” value came to 10.4.

Consider “ACATATGACTATAATACACACTTGTATTATTAATAT [CACACA_site6951]”, for which the “gcPBM binding intensity (ln)” value amounted to 9.81.

Turning to “TTATAGAGCTTATTCACACATACATATGTATTTATA [CACACA_site5775]”, the “gcPBM binding intensity (ln)” value is 9.87.

As for “ATAATAAAAATATACTGTACATTTGTAAATTCTTTT [XGTACX_site4655]”, the “gcPBM binding intensity (ln)” value was 9.6.

For “TAAAACATATAAAGGTGTACGCCTTTTTGTATCAAT [XGTACX_site6064]”, the “gcPBM binding intensity (ln)” value came out at 9.67.

Turning to “TATATTTGTTGACACACACACAAAAAAAAAAAAAAA [CACACA_site7211]”, the “gcPBM binding intensity (ln)” value came to 10.1.

In the case of “GTCTACTACACTAAATGTACAAGAAAAAAGAAAAAA [XGTACX_site4660]”, the “gcPBM binding intensity (ln)” value worked out at 9.48.

Turning to “AAGAGTAAAATATGGTTGCACTAAAAATATATATTT [GTGCAC_site9484]”, the “gcPBM binding intensity (ln)” value was found to be 9.55.

Turning to “CTTAATATATGTGGCACACATGTGGAGTCCTATTAA [CACACA_site4281]”, the “gcPBM binding intensity (ln)” value worked out at 9.75.

For the sequence “AAAAAAATATTAATGTGTACATAATAATAACATATA [XGTACX_site8319]”, the “gcPBM binding intensity (ln)” value stood at 9.78.

Regarding “TATAAAATTCTGACTTGTACATGTGAAAAATAATTA [XGTACX_site1396]”, the “gcPBM binding intensity (ln)” value is 9.53.

“TATATATATATATAATGTACACATTTTTATAACTAT [XGTACX_site5714]”: the “gcPBM binding intensity (ln)” value was 9.6.

With “AAAGATGGAAAAAAAAATTTGTGTGTTGAAAGATAT [GTGCAC_negctrl_site19]”, the “gcPBM binding intensity (ln)” value came out at 9.69.

As for “AAAATACAATTTCTAGCACACAAAATATTATTATAA [CACACA_site9056]”, the “gcPBM binding intensity (ln)” value came to 9.72.

Turning to “GCGTTGTTTTTAAAAAGTACATTTTTATATAAGTTA [XGTACX_site8780]”, the “gcPBM binding intensity (ln)” value was 9.63.

Turning to “TTGGTGATATTTTTCTCACACATTTACCAGAGATGT [CACACA_site4684]”, the “gcPBM binding intensity (ln)” value came out at 9.7.

For the sequence “TTTGTTTTTTTGAGAGTGCAATATATATAAAAAGGG [GTGCAC_site9691]”, the “gcPBM binding intensity (ln)” value is 9.31.

For the sequence “CATAATAAGTATAACGTTAGTTACAAACAGCTTGTT [CACACA_negctrl_site937]”, the “gcPBM binding intensity (ln)” value is 9.76.

With TATTATTCAAAATTTGTGCACAAAATTAAAGGAACA, the “gcPBM binding intensity (ln)” value came out at 9.82.

For the sequence “AAAATAATGTATATAGTGCAAATGAAAACGAAAAAA [GTGCAC_site9455]”, the “gcPBM binding intensity (ln)” value was found to be 10.1.

Take “TTTTTAAATAAATGTTTTTATTATATACATATCAAT [TGCATGCA_negctrl_site423]”: the “gcPBM binding intensity (ln)” value was found to be 9.62.

As to “TATTTATATATTTATGCATGTTATAGGCAAAAATGT [TGCATGCA_site397]”, the “gcPBM binding intensity (ln)” value was determined as 9.51.

In the case of “TATATTGATGATGATAGTACGTATGAATACAAAAAA [XGTACX_site4]”, the “gcPBM binding intensity (ln)” value came out at 9.76.

“GTAGATATTTATTGAGTGCATGTTATAAAGGGAAAA [GTGCAC_site9481]”: the “gcPBM binding intensity (ln)” value came out at 9.69.

For “TTTTTATTTTTTTACAGTACATAAAATAAATAAATA [XGTACX_site6596]”, the “gcPBM binding intensity (ln)” value was determined as 9.05.

With “TTTTTTTTATGGAAACGTACATACATACATTAAAGA [XGTACX_site7401]”, the “gcPBM binding intensity (ln)” value was determined as 9.31.

Regarding “AATTATTTATTGAGAGTGCAACAAATTATTTCAAAT [GTGCAC_site9461]”, the “gcPBM binding intensity (ln)” value amounted to 9.35.

For the sequence “ACATTTTAAATACGATGTACTTGAGTTTTTTTTAAA [XGTACX_site5833]”, the “gcPBM binding intensity (ln)” value is 9.47.
